Paper PMC7083937, “The ribosome-associated complex RAC serves in a relay that directs nascent chains to Ssb” (Nature Communications, 2020)
Where a chain is given by its changes, count along the chain named. Results are given in words; binding and its absence hold for the method and conditions named. For some of these results: In cells and extracts the contact can be indirect. Some results given as binding are weak or reduced against the parent protein; the word gives no strength. Each block holds one binder with its values, some of them ahead of it.

What was measured:
[1] = target: T1, ScSsz1, recombinant (S. cerevisiae) (UniProt P38788); assay: co-expression and co-purification; His6-MBP-3C-ScZuo1N construct coexpressed with His6-SUMO-ScSsz1 or ScSsz1mut; ResourceQ and size-exclusion chromatography in 20 mM Hepes/KOH pH 7.5, 120 mM KOAc, 5 mM Mg(OAc)2, 1 mM DTT
T1 sequence: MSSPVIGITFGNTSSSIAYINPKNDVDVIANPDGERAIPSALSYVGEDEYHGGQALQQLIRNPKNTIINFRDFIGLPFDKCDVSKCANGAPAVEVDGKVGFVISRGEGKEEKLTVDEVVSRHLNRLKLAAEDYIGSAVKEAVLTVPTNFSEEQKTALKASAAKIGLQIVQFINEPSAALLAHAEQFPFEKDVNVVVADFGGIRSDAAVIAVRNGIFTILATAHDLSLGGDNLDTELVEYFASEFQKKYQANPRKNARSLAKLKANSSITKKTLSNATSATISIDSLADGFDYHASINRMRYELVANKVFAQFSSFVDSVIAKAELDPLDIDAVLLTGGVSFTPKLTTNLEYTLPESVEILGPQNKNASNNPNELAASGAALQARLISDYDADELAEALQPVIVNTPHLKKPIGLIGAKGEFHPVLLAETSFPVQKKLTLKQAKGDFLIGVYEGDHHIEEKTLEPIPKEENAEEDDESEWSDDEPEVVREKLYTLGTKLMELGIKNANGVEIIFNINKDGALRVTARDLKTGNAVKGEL

[2] = target: T2, ScSsz1mut (ScSsz1 L439S/K440P/I448F/G495K), recombinant (S. cerevisiae) (UniProt P38788); assay: as above
T2 sequence: T1 sequence with L439S, K440P, I448F, G495K

[3] = target: T3, NR-peptide (NRLLLTG) labelled at the N terminus with fluorescein; assay: fluorescence polarisation; fluorescence anisotropy; two-fold serial dilutions of the protein complex mixed 1:1 with 40 nM fluorescein peptide; 20 mM Hepes/KOH pH 7.5, 200 mM KCl, 5 mM MgCl2, 1 mM DTT, 1 µM BSA; room temperature, 30 min; one-site binding fit; affinity called estimated; both purified
T3 sequence (peptide, fluorescein at the N terminus): NRLLLTG

[4] = target: T4, nascent Pgk1-100 (100 residues) (S. cerevisiae) (UniProt P00560); assay: cross-linking; as a1, RNCs generated in Ssb1-ΔC23 translation extract
T4 sequence (chain, [35S]-methionine labelled): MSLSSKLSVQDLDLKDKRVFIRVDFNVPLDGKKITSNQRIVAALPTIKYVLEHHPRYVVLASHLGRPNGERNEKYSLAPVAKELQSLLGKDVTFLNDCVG

[5] = target: T4, nascent Pgk1-100 (100 residues) (S. cerevisiae); assay: cross-linking; as a1, RNCs generated in Δssb1Δssb2 translation extract (Ssb absent)
[6] = target: T5, nascent Pgk1-50 (50 residues) (S. cerevisiae) (UniProt P00560); assay: as above
T5 sequence (chain, [35S]-methionine labelled): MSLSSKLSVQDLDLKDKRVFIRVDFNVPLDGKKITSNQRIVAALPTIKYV

[7] = target: T6, nascent Pgk1 of 150 residues (S. cerevisiae) (UniProt P00560); assay: as above
T6 sequence (chain, [35S]-methionine labelled): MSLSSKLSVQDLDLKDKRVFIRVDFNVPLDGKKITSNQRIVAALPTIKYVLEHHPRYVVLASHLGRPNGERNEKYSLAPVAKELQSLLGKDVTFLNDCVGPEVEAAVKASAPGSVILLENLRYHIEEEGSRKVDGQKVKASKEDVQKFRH

[8] = target: T7, nascent Pgk1-45 (45 residues) (S. cerevisiae) (UniProt P00560); assay: cross-linking; RNCs with [35S]-labelled nascent chains generated in wild type yeast translation extract, isolated by centrifugation; 400 µM BS3, 20 min on ice; denaturing immunoprecipitation with antibodies against Ssb, Zuo1 or Ssz1; autoradiography
T7 sequence (chain, [35S]-methionine labelled): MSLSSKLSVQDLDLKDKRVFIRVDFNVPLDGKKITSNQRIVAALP

[9] = target: T8, nascent Pgk1-40 (40 residues) (S. cerevisiae) (UniProt P00560); assay: as above
T8 sequence (chain, [35S]-methionine labelled): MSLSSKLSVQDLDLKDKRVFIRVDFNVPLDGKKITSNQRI

[10] = target: T4, nascent Pgk1-100 (100 residues) (S. cerevisiae); assay: cross-linking; RNCs from Δssb1Δssb2Δzuo1Δssz1 translation extract; ribosome-free extract from Δssb1Δssb2 (Zuo1, Ssz1) added before cross-linking
[11] = target: T4, nascent Pgk1-100 (100 residues) (S. cerevisiae); assay: condition: only with Ssb present (wild type translation extract); cross-linking; RNCs with [35S]-labelled nascent chains generated in wild type yeast translation extract, isolated by centrifugation; 400 µM BS3, 20 min on ice; denaturing immunoprecipitation with antibodies against Ssb, Zuo1 or Ssz1; autoradiography
[12] = target: T5, nascent Pgk1-50 (50 residues) (S. cerevisiae); assay: as above
[13] = target: T6, nascent Pgk1 of 150 residues (S. cerevisiae); assay: as above
[14] = target: T4, nascent Pgk1-100 (100 residues) (S. cerevisiae); assay: cross-linking; as a4, ribosome-free extract from Δssz1 (Ssb, Zuo1) added

B2: ScSsz1-Zuo1NΔLP complex (ScSsz1 with ScZuo1NΔLP residues 10-50) (complex, UniProt P38788 1-538; P32527 10-50)
chain 1: T1 sequence
chain 2: DITVEVNSSATKTPFVRRPVEPVGKFFLQHAQRTLRNHTWS
binding [3]: no binding

B3: Zuo1 (J-domain protein, Hsp40 subunit of RAC) (protein, UniProt P32527 1-433)
chain: MFSLPTLTSDITVEVNSSATKTPFVRRPVEPVGKFFLQHAQRTLRNHTWSEFERIEAEKNVKTVDESNVDPDELLFDTELADEDLLTHDARDWKTADLYAAMGLSKLRFRATESQIIKAHRKQVVKYHPDKQSAAGGSLDQDGFFKIIQKAFETLTDSNKRAQYDSCDFVADVPPPKKGTDYDFYEAWGPVFEAEARFSKKTPIPSLGNKDSSKKEVEQFYAFWHRFDSWRTFEFLDEDVPDDSSNRDHKRYIERKNKAARDKKKTADNARLVKLVERAVSEDPRIKMFKEEEKKEKERRKWEREAGARAEAEAKAKAEAEAKAKAESEAKANASAKADKKKAKEAAKAAKKKNKRAIRNSAKEADYFGDADKATTIDEQVGLIVDSLNDEELVSTADKIKANAAGAKEVLKESAKTIVDSGKLPSSLLSYFV
binding [4]: binds | binding [5]: binds | binding [6]: binds | binding [7]: binds | binding [8]: binds | binding [9]: binds | binding [10]: binds | binding [11]: no binding | binding [12]: no binding | binding [13]: no binding | binding [14]: binds

B5: ScSsz1-Zuo1N complex (ScSsz1 with ScZuo1N residues 1-50) (complex, UniProt P38788 1-538; P32527 1-50)
chain 1: T1 sequence
chain 2: MFSLPTLTSDITVEVNSSATKTPFVRRPVEPVGKFFLQHAQRTLRNHTWS
binding [3]: no binding

Now from value to binder:

binding [1]: binds | binding [2]: binds
B1: ScZuo1NΔLP (residues 10-50 of ScZuo1) (domain or fragment, UniProt P32527 10-50)
chain: B2 chain 2

binding [1]: binds
B4: ScZuo1N (residues 1-50 of ScZuo1) (domain or fragment, UniProt P32527 1-50)
chain: B5 chain 2
